From the DeepSol protein solubility set

Assay: soluble on expression in E. coli; label from the status in PepcDB or PDB records

## GNEEETNNYTPVDNQSNSTSEIILQERNSSLPRVWSKKTAQRVTTRASFTDATDFLGCSYAVENGTSIIGDFANAKYPVVNMKKLLERYPSYINPKELRTTETKALSYSDFDRLEKNKTFTKTVKSGFSLNLGPFKFGRQKTIKETFVHNTDDSEKVVHGELSIEVVNGMLNLQTAPSALRKIAADYLDELFVDALYNSSMVELMQSYGEFVLTGYYTGGRASALFYGVDTNSIQFDSKEKDMDVAINASYEWKNKKPTAPSDTIHSASGNLSIGTKRENSETITNKFSALSYSIKTLGGAYGYSISTPPYDITNYSIDLTPWLQSLNDPKTHTMIDLQDGGLYPISDFILEENFKQRYNDTHMDFQYQESLEEPYIEIIKMYIRKSNSGEKLYDIVPVLNTRQGDKLIFSNPDAASQSDEELKANSIPATFLTKSNAIKDEKSKYYQLKIKADPNKTINPIIQTTLSFQINNVDEKGMYKFKNANTNIWYIYNPTSMYCFAYYDDDYIPDAYGILDWVNGIPIKAVTMTTLYQRYKIYGL
  soluble on expression in E. coli: soluble
